Results on 46 compounds are retold here after article PMC4336329 (PLoS ONE, 2015).

The structures appear in SMILES notation. Hit rate of the full screen: of about 310,000 compounds, about 14,000 (4.5%) showed an effect of 50% or more. The effect is printed as a negative number. The list shows a part of the results.
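Note: peak tail current of the secondary pulse compared with the same well before compound.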

human ether-à-go-go-related gene (hERG) potassium channel, sequence (Q12809 whole entry, looked up): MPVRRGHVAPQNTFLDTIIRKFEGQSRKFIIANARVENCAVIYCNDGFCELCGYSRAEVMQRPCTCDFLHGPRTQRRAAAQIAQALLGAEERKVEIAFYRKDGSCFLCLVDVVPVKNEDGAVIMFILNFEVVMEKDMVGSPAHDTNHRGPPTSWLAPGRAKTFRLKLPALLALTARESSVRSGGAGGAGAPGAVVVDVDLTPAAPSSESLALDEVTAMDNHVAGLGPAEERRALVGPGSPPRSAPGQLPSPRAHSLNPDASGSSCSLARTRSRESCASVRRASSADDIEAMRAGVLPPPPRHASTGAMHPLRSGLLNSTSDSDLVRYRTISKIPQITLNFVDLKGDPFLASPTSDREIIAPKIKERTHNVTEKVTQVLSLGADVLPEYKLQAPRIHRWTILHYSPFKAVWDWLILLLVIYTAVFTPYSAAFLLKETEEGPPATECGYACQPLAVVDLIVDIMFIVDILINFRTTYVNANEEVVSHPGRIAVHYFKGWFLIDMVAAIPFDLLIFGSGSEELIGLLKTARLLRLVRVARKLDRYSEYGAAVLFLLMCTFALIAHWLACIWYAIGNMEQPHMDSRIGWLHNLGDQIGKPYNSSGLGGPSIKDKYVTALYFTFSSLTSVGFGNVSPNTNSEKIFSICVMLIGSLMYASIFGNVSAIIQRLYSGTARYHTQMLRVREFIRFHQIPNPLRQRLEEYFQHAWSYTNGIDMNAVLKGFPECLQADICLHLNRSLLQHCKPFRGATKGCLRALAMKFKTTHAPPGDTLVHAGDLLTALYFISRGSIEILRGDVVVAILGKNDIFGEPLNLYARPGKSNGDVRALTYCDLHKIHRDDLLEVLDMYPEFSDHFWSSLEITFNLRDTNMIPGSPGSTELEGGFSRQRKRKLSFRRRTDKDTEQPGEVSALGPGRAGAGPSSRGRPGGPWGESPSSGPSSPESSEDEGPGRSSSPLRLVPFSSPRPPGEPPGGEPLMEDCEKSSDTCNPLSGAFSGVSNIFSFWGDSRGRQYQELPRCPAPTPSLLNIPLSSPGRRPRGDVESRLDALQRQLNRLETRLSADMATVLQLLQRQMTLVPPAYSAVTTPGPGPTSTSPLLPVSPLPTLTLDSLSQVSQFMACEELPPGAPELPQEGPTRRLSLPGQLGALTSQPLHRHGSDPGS

This assay concerns the target human ether-à-go-go-related gene (hERG) potassium channel (human, UniProt Q12809). Kind of assay: primary screen, population patch clamp on CHO cells stably expressing hERG.
For `CCOc1ccc(N(CC(=O)NCc2ccc(OC)cc2)S(=O)(=O)c2c(C)[nH]c(=O)[nH]c2=O)cc1`, the “hERG current change (%, negative = inhibition) at 10uM” value is reported as 19.4%.
For `CC(NS(=O)(=O)c1ccccc1)c1n[nH]c(=S)n1-c1ccccc1` (stereo not shown) the value was -21.3%; for `Cc1cc(C)n(CCN(C)c2nc3nonc3nc2NC2CC2)n1`, 18.8%.
For `O=C(CSS(=O)(=O)[O-])N1CCN(C(=O)c2ccoc2)CC1.[Na+]` the value was 19.6%; for `O=C1C2N=NN(CC(=O)N3N=C(c4cccc5ccccc45)CC3c3ccccc3)C2C(=O)N1c1ccccc1` (stereo not shown), -2.53%; for `COc1ccc(OC)c(NC2=NCCCS2)c1`, 9.99%.
The result for `CCc1ccc(N2CC34C=CC(O3)C(C(=O)OC(C)C)C4C2=O)cc1` (stereo not shown) reads 10.9%.
Regarding `O=S(N1CCCCCC1)C12CC3CC(CC(C3)C1)C2` (stereo not shown), the “hERG current change (%, negative = inhibition) at 10uM” value is on record as -10.6%.
For `COc1cccc(NC(=S)NC2CC3CCCC(C2)N3C2CCCC2)c1` (stereo not shown) the value was -33.6%.
As to `CC1(C)C2CCC1(C)C([NH2+]c1ccccc1)C2.[Cl-]` (stereo not shown), the “hERG current change (%, negative = inhibition) at 10uM” value worked out at 15.2%.
Take `Clc1cc2c(c(Cn3cnc4ccccc43)c1)OCOC2`: the “hERG current change (%, negative = inhibition) at 10uM” value is listed as 11.2%.
The result for `Cc1ccc(NC(=O)CS(=O)(=O)c2cn(C)c3ccccc23)c(C)c1` reads 6.26%.
For `Cc1nc2scc(-c3ccccc3)c2c(=O)n1/N=C/c1ccco1` the value was 2.25%; for `O=S(=O)(c1ccccc1)N1CCC(O)(CSc2ccc(F)cc2)CC1`, 15.7%.
The result for `CS(=O)(=O)O.c1ccc2c(c1)CCc1c(-c3ccncc3)n[nH]c1-2` reads -3.06%.
Turning to `Cc1onc(-c2ccccc2Cl)c1C(=O)N1CCN(C=O)CC1`, the “hERG current change (%, negative = inhibition) at 10uM” value was 27.9%.
Consider `COc1ccccc1CNCc1cccs1.Cl`, for which the “hERG current change (%, negative = inhibition) at 10uM” value is recorded as -2.91%.
Consider `CC(=O)Nc1ccc(NC(=O)N(c2ccccc2)c2ccccc2)cc1`, for which the “hERG current change (%, negative = inhibition) at 10uM” value was 14.7%.
For `CC(CNS(=O)(=O)c1ccc(Br)cc1)CN(C)C` (stereo not shown) the value was -31.8%; for `Cc1c(NC(=O)c2cccc(NS(C)(=O)=O)c2)c(=O)n(-c2ccccc2)n1C`, 4.18%.
For `O=c1cc(N2CCN(c3ccccc3)CC2)[nH]c(=O)n1C1CCCCC1` the value was 4.56%.
The result for `CCc1ccc(OCCCC(=O)Nc2nnc(C3CCCO3)s2)cc1` (stereo not shown) reads 17.9%.
As for `CN(C)S(=O)(=O)c1ccc2c(c1)C(CC(=O)O)NC2=O` (stereo not shown), the “hERG current change (%, negative = inhibition) at 10uM” value came to 6.72%.
For `O=C(CSc1nnc2c(Cl)cc(Cl)cn12)N1CCN(S(=O)(=O)c2ccccc2)CC1` the value was -19.1%; for `O=C(Cc1ccccc1F)Nc1nc(-c2cccnc2)cs1`, 37%; for `COc1ccc(NC(=O)CSc2nnc(-c3ccncc3)o2)c(OC)c1`, 9.98%.
For `O=C(/C=C/c1ccc(O)c(O)c1)c1ccc(S(=O)(=O)N2CCCCCC2)cc1` the value was 27.1%; for `CCC(=O)Nc1cccc(-c2ccc(N3CCCCC3)nn2)c1`, 0.24%.
For the compound `CCCCc1nnc(NC(=O)Cc2ccc(OC)c(S(=O)(=O)N3CCOCC3)c2)s1`, the “hERG current change (%, negative = inhibition) at 10uM” value amounted to 5.43%.
With `O=C(/C=N/O)Nc1ccccc1`, the “hERG current change (%, negative = inhibition) at 10uM” value was -6.97%.
Consider `Cc1cccc(C)c1NC(=O)CNC(=O)Cc1ccc(Br)cc1`, for which the “hERG current change (%, negative = inhibition) at 10uM” value came out at 20.9%.
The result for `COc1cc2cc(CN(CCO)S(=O)(=O)c3ccccc3Cl)c(=O)[nH]c2cc1OC` reads 0.98%; that for `COc1ccc(NC(=O)C2=C(C)C(=O)OC23CCC(C)CC3)cc1Cl` (stereo not shown), 14%; that for `CCOc1ccc2c(c1)-c1c(ssc1=S)C(C)(C)N2C`, -3.7%.
For `COC(=O)c1cc2sccc2n1CC(=O)Nc1cc(OC)cc(OC)c1` the value was 7.97%.
Turning to `CC(/C=N/NC(=O)c1cc(C2CC2)[nH]n1)=C\c1ccccc1`, the “hERG current change (%, negative = inhibition) at 10uM” value was 13.8%.
The result for `COc1cc(NC(=O)C(C)C)ccc1NC(=O)c1ccco1` reads 4.84%; that for `COc1cc(/C=C2\SC(=S)N(CCC(=O)NC3CCCC3)C2=O)cc(OC)c1OC`, 1.81%; that for `CC(C(=O)NNS(=O)(=O)c1cccc(C(F)(F)F)c1)n1nnc(N2CCOCC2)n1` (stereo not shown), -38.4%.
`CCOc1ccc(/C=N/NC(=O)c2c(-c3ccccc3)noc2C)cc1`: the “hERG current change (%, negative = inhibition) at 10uM” value is -3.67%.
For `Cc1ccc2[nH]c(=O)c(C(c3nnnn3CC3CCCO3)N3CCOCC3)cc2c1` (stereo not shown) the value was 7.56%; for `COc1ccc(NC(=O)CSCC(=O)NCc2ccco2)cc1`, 1.54%.
For `CCNc1nc2c(c(=O)[nH]c(=O)n2C)n1CCCc1ccccc1` the value was 8.7%; for `CCS(=O)(=O)c1ccc2c(c1)N(S(=O)(=O)c1ccccc1)CC(C(=O)O)O2` (stereo not shown), -0.5%; for `COc1cc(O)sc1C=Nc1ccc(Cl)cc1`, 4.72%.
The result for `O=C(NCCc1csc(-c2ccc(Cl)cc2)n1)c1ccco1` reads -15%.
